The list shows a part of the results. Sequences were assembled here from the parent chain. Values near 0.05 are background.
B1: TEV protease; numbered along this chain (parent)
chain: MGESLFKGPRDYNPISSSICHLTNESDGHTTSLYGIGFGPFIITNKHLFRRNNGTLVVQSLHGVFKVKDTTTLQQHLVDGRDMIIIRMPKDFPPFPQKLKFREPQREERICLVTTNFQTKSMSSMVSDTSCTFPSGDGIFWKHWIQTKDGQCGSPLVSTRDGFIVGIHSASNFTNTNNYFTSVPKNFMELLTNQEAQQWVSGWRLNADSVLWGGHKVFMVKPEEPFQPVKEATQL

Variants of: B1
Assay: raw area under fraction-flipped curve 0-4 h after induction (AUC4h, not background-subtracted), DNA-recorder readout of cleavage of the substrate (dimensionless); higher = more cleavage of the substrate by the protease variant
Conditions: temperature: 34 °C; time window: 0-4 h after rhamnose induction
Protocol: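 In vivo DNA recorder in E. coli TOP10(DE3) ΔrhaA at 34 °C. Each TEVp single-site mutant (parent TEVp 0) is paired with a single-site variant of the 7-mer TEVs (canonical ENLYFQ|S). The substrate sits between flexible linkers in a Bxb1-sfGFP-TEVs-SsrA fusion, so cleavage stabilises Bxb1 and speeds flipping of a recombination array, read by NGS. The value is the raw area under the fraction-flipped curve over 0-4 h after rhamnose induction (AUC4h), with ≥20 reads per time point. It is not background-subtracted; inactive controls average about 0.047.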
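Also: Bxb1 expression induced with 0.2% (w/v) L-rhamnose at OD600 near 0.5, cultures sampled hourly, flipped fraction per protease–substrate barcode pair counted by paired-end Illumina sequencing.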

| Variant | area with substrate EALYFQS | area with substrate ECLYFQS | area with substrate EDLYFQS | area with substrate EGLYFQS | area with substrate EHLYFQS | area with substrate EILYFQS | area with substrate EKLYFQS | area with substrate ELLYFQS | area with substrate EQLYFQS | area with substrate ERLYFQS | area with substrate ESLYFQS | area with substrate EVLYFQS | area with substrate EYLYFQS | area with substrate EELYFQS | area with substrate EFLYFQS | area with substrate EMLYFQS | area with substrate ETLYFQS | area with substrate EWLYFQS | area with substrate EPLYFQS |
| --- | --- | --- | --- | --- | --- | --- | --- | --- | --- | --- | --- | --- | --- | --- | --- | --- | --- | --- | --- |
| D27W | 0.109 | 0.0827 | 0.0901 | 0.0954 | 0.0754 | 0.0731 | 0.0955 | 0.0712 | 0.109 | 0.0923 | 0.0901 | 0.117 | 0.085 | – | – | – | – | – | – |
| G28D | 0.103 | 0.0894 | 0.113 | – | 0.0993 | 0.09 | 0.0893 | 0.0947 | 0.108 | 0.0821 | 0.113 | 0.0981 | 0.104 | 0.115 | 0.0893 | 0.133 | 0.106 | 0.0879 | – |
| G28I | 0.0873 | 0.0935 | 0.0812 | 0.0641 | 0.0815 | 0.0769 | 0.0673 | – | 0.0985 | 0.0799 | 0.079 | 0.0709 | 0.0977 | 0.0795 | – | 0.105 | 0.0779 | – | 0.114 |
| H29C | 0.119 | 0.125 | 0.104 | 0.11 | – | 0.109 | 0.112 | 0.104 | 0.129 | 0.113 | 0.114 | 0.102 | 0.109 | 0.139 | 0.101 | 0.12 | 0.112 | 0.115 | 0.139 |
| H29N | 0.106 | 0.108 | 0.122 | – | – | 0.103 | 0.135 | – | 0.094 | 0.105 | 0.0993 | 0.0937 | 0.11 | 0.11 | 0.0992 | 0.102 | 0.102 | 0.0823 | 0.126 |
| T30L | 0.103 | 0.0736 | 0.117 | 0.0855 | – | 0.0946 | 0.0951 | 0.0997 | 0.0625 | – | 0.117 | – | 0.0925 | 0.14 | 0.114 | 0.0987 | – | 0.0918 | – |
| T30Y | 0.1 | 0.115 | 0.129 | 0.0933 | 0.104 | 0.0926 | – | 0.0765 | 0.099 | – | 0.0896 | 0.1 | 0.0951 | 0.118 | – | 0.097 | – | 0.103 | 0.123 |
| T31A | 0.106 | 0.105 | 0.111 | 0.0755 | – | 0.103 | – | 0.0909 | – | 0.159 | 0.124 | 0.111 | 0.101 | 0.117 | – | – | 0.138 | – | – |
| L33I | 0.0824 | 0.098 | 0.114 | 0.0715 | 0.0936 | 0.065 | – | 0.0711 | – | 0.0734 | 0.0833 | 0.0709 | 0.0826 | 0.114 | 0.0855 | 0.0822 | 0.0824 | 0.0696 | 0.0867 |
| L33M | 0.08 | 0.0702 | 0.101 | 0.0754 | – | 0.0701 | 0.0672 | 0.0671 | 0.0829 | 0.0642 | 0.0816 | 0.0641 | 0.0591 | 0.0851 | – | 0.098 | 0.0774 | 0.0793 | 0.0768 |
| I36H | 0.0501 | 0.0403 | 0.0573 | – | 0.0428 | 0.0358 | 0.0452 | 0.049 | 0.0332 | 0.0476 | 0.0537 | 0.0454 | 0.0485 | 0.062 | – | 0.043 | 0.0524 | – | 0.0466 |
